# Data: PubChem BioAssay (Tox21)
# Values joined by “and” are separate entries in the source; they are usually repeats but may differ in a detail not shown here. Equal values may be shown once. The shares of active, inactive and inconclusive entries below differ from those in the screen. For some of these results: Potencies of inconclusive entries are doubtful fits and often do not repeat. The source holds several records for some structures; these can differ, active in one and inactive in another. Active and inactive are the calls of the source. Unless noted, calls come from the whole dose curve; as a rule, active = well fitted curve in the direction sought with a large enough effect in the repeat runs; inconclusive = weak or mixed curves; inactive = no such curve, though single readings can be large; an effect the other way counts as inactive or inconclusive.
# Key:
# [1] = qHTS assay to identify aromatase inhibitors - cell viability counter screen (AID 743084); conditions: MCF-7 aro ERE viability, CellTiter-Fluor, 24 h; activity change, negative = cytotoxicity: at 70.3 µM (top of the series);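 note: cells stimulated with testosterone during compound exposure; nearly all actives have a fitted effect of over 55% in size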; note: potency is the fitted concentration of half-maximal effect; for activity change, negative = cytotoxicity: % is set by controls: 0 for no effect and ±100 for the full control effect
# [2] = target: Peroxisome proliferator-activated receptor delta (Homo sapiens) (UniProt Q03181); experiment: qHTS assay to identify small molecule agonists of the peroxisome proliferator-activated receptor delta (PPARd) signaling pathway (AID 743212; calls by dose curve;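 note: HEK293H cells with PPARd UAS beta-lactamase reporter GeneBLAzer system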; note: potency is the fitted concentration of half-maximal effect; for activation: % is set by controls: 0 for no effect and ±100 for the full control effect); conditions: HEK293H PPARd-UAS-bla, beta-lactamase FRET ratio, 17 h; activation: at 62.6 µM (top of the series) unless noted
# Method in brief: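 Beta-lactamase reporter read by fluorescence (LiveBLAzer B/G FRET, 2 h, room temperature). Test agents, in DMSO, incubated at 37 C with PPARd-bla HEK293H cells.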
# [3] = Caspase-3/7 induction in CHO-K1 cells by small molecules, qHTS cell viability counter screen (AID 1346979); note: potency is the fitted concentration of half-maximal effect; nearly all actives have a fitted effect of over 35% in size
# Method in brief: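 Cytotoxicity counter screen run in parallel with the caspase-3/7 assay: CHO-K1 cells, 16hr compound treatment at 37C, then CellTiter-Fluor for 1hr before fluorescence reading.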
# [4] = target: Nuclear receptor subfamily 1 group I member 3 (Homo sapiens) (UniProt Q14994); experiment: qHTS assay to identify small molecule agonists of the constitutive androstane receptor (CAR) signaling pathway (AID 1224839); note: nearly all actives have a fitted effect of over 15% in size; note: potency is the fitted concentration of half-maximal effect
# Method in brief: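 Cells were plated and incubated 4 hrs, then dosed with compounds at 15 concentrations. PK11195 was added to 0.75 uM final. After 24 hrs at 37 C, luciferase luminescence was measured.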
# [5] = qHTS assay to identify small molecule antagonists of the estrogen related receptor signaling pathway with the pleiotropic PPARgamma coactivator (PGC) from Tox21 10K library (AID 1224841; call rule not given here; note: actives are mostly falling curves and most rising ones were filed inactive; nearly all actives have a fitted effect of over 50% in size; note: potency is the fitted concentration of half-maximal effect)
# Method in brief: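 Test chemicals dissolved in DMSO were applied to pre-incubated (6 h) PGC/ERR cells at 2,000 cells/well for an 18 h, 37 C treatment; reporter luminescence was then read using One-Glo.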
# [6] = qHTS assay to identify small molecule antagonists of the sonic hedgehog signaling (Shh) pathway - cell viability counter screen (AID 1259367); note: potency is the fitted concentration of half-maximal effect; nearly all actives have a fitted effect of over 55% in size
# Method in brief: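 Conditioned medium drove Shh signaling in 3T3 Gli1-Luc cells exposed to compounds at 37C and 5% CO2. Viability was determined from CellTiter-Fluor fluorescence, with reagent incubated 1 hr after 23 hr of treatment.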
# [7] = target: Aryl hydrocarbon receptor (Homo sapiens) (UniProt P35869); experiment: qHTS assay to identify small molecule that activate the aryl hydrocarbon receptor (AhR) signaling pathway (AID 743085); note: nearly all actives have a fitted effect of over 15% in size; note: potency is the fitted concentration of half-maximal effect;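 for activation: HG2L7.5c1 human HepG2 liver cells with stably integrated DRE-driven firefly reporter; % is set by controls: 0 for no effect and ±100 for the full control effect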
# Method in brief: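 Compounds were tested in HepG2 hepatocellular carcinoma cells harbouring a stably integrated luciferase gene under control of 20 DREs. Increased reporter signal after 24 h treatment at 37C was taken as AhR activation.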
# [8] = Human pregnane X receptor (PXR) small molecule agonists, qHTS cell viability counter screen (AID 1346977); note: nearly all actives have a fitted effect of over 50% in size; note: potency is the fitted concentration of half-maximal effect
# Method in brief: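 Cytotoxicity counter screen run in the same wells as the PXR luciferase assay, using PXR-Luc HepG2 cells in charcoal-stripped serum medium. Viability: CellTiter-Fluor fluorescence after 24hr compound treatment.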
# [9] = qHTS assay to identify small molecule antagonists of the androgen receptor (AR) signaling pathway - cell viability counter screen (AID 743033; note: nearly all actives have a fitted effect of over 45% in size; note: potency is the fitted concentration of half-maximal effect)
# [10] = target: Thyrotropin receptor (Homo sapiens) (UniProt P16473); experiment: qHTS assay to identify small molecule antagonists of the thyroid stimulating hormone receptor (TSHR) signaling pathway (AID 1259385; calls by dose curve; note: potency is the fitted concentration of half-maximal effect; nearly all actives have a fitted effect of over 20% in size); conditions: TSHR-HEK293 cAMP HTRF, TSH-stimulated antagonist mode; activity change, negative = inhibition: at 92.4 µM (top of the series)
# Method in brief: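 TSHR-HEK293 cells were plated and held 18 h at 37C/5% CO2, then given compound plus Ro20-1724 and stimulated with TSH at 1.5 ng/mL final. After 30 min at room temperature, cAMP was detected with cAMP-d2/anti-cAMP-cryptate (1 h) by fluorescence.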
# [11] = qHTS assay to identify small molecule agonists of the sonic hedgehog signaling (Shh) pathway - cell viability counter screen (AID 1259366); note: potency is the fitted concentration of half-maximal effect; nearly all actives have a fitted effect of over 50% in size
# Method in brief: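 Cells are plated at 2,000 per well and left 4hr at 37C, 5% CO2 before compound addition. After 23hr of treatment, CellTiter-Fluor reagent is added for 1hr at 37C and fluorescence is measured.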
# [12] = qHTS assay to identify small molecule agonists of the peroxisome proliferator-activated receptor delta (PPARd) signaling pathway - cell viability counter screen (AID 743211); conditions: PPARd-bla HEK293H viability, CellTiter-Glo luminescence, 17 h; activity change, negative = cytotoxicity: at 62.6 µM (top of the series); note: nearly all actives have a fitted effect of over 55% in size; note: potency is the fitted concentration of half-maximal effect
# Method in brief: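 Counter screen for cytotoxicity run in parallel with the PPARd reporter screen. Beta-lactamase reporter HEK293H cells exposed to compounds 17 h; ATP-based CellTiter-Glo luminescence quantified viability.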
# [13] = target: Vitamin D3 receptor (Homo sapiens) (UniProt P11473); experiment: qHTS assay to identify small molecule agonists of the vitamin D receptor (VDR) signaling pathway (AID 743222; calls by dose curve; note: % is set by controls: 0 for no effect and ±100 for the full control effect); conditions: HEK293T VDR-UAS-bla, beta-lactamase FRET ratio, 16 h; activation: at 63.5 µM (top of the series) unless noted
# Method in brief: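 Using LiveBLAzer B/G FRET detection, agonism was scored in VDR-bla cells exposed overnight (16 h, 37C) to DMSO-dissolved compounds; substrate incubation was 2 h at room temperature.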
# [14] = Caspase-3/7 induction in HepG2 cells by small molecules, qHTS cell viability counter screen (AID 1346981); note: % is set by controls: 0 for no effect and ±100 for the full control effect; nearly all actives have a fitted effect of over 30% in size
# Method in brief: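 Treatment of HepG2 cells with DMSO-delivered compounds ran 16 hr at 37 C following a 5-hr pre-incubation of 2,000 cells/well. CellTiter-Fluor fluorescence, read after 1 hr, served as the viability measure in a qHTS format.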
# Tags give direction and shape of the fitted curve.
# Sequence of UniProt Q14994 (Q14994 whole entry, looked up): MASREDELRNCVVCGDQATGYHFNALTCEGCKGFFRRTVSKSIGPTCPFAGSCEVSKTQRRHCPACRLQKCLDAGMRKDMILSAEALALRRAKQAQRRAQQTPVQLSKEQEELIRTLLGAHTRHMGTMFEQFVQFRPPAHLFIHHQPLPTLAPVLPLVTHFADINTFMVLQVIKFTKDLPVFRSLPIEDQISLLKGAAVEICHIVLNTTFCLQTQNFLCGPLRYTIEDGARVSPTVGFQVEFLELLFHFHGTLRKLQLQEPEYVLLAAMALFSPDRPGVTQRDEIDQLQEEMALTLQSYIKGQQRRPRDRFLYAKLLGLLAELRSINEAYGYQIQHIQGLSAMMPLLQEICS
# Sequence of UniProt P11473 (P11473 whole entry, looked up): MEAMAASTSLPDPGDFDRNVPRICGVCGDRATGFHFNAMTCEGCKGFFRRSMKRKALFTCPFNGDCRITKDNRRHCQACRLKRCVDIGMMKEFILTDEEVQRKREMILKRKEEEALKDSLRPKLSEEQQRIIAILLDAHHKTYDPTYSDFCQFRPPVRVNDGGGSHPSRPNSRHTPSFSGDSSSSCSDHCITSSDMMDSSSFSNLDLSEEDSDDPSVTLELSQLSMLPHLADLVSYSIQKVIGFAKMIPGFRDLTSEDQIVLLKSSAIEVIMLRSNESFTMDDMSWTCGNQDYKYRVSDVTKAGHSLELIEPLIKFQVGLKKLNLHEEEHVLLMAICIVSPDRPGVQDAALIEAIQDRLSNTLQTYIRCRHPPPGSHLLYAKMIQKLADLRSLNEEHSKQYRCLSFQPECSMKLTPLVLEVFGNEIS
# Sequence of UniProt P35869 (P35869 whole entry, looked up): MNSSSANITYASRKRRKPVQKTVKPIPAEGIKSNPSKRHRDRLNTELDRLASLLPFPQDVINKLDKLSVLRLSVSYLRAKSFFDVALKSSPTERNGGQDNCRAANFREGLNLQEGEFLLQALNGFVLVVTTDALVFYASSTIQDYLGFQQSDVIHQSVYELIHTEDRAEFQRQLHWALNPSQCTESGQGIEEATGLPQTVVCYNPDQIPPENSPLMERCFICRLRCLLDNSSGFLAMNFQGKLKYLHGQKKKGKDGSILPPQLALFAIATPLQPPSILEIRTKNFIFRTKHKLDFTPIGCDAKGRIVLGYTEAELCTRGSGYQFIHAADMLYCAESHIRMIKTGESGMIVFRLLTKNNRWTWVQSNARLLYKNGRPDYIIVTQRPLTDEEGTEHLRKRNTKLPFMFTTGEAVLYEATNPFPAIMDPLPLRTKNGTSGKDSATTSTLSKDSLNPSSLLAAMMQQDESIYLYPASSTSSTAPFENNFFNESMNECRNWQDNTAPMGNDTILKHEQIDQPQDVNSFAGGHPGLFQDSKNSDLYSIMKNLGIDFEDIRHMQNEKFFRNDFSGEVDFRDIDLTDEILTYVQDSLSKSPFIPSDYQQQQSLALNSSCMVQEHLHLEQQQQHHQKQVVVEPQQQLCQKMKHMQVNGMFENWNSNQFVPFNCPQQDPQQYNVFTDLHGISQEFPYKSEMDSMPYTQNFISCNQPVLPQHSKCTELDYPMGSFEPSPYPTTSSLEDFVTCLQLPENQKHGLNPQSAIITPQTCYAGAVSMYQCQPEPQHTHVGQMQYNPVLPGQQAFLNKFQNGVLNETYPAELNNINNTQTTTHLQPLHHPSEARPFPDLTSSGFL
# Sequence of UniProt Q03181 (Q03181 whole entry, looked up): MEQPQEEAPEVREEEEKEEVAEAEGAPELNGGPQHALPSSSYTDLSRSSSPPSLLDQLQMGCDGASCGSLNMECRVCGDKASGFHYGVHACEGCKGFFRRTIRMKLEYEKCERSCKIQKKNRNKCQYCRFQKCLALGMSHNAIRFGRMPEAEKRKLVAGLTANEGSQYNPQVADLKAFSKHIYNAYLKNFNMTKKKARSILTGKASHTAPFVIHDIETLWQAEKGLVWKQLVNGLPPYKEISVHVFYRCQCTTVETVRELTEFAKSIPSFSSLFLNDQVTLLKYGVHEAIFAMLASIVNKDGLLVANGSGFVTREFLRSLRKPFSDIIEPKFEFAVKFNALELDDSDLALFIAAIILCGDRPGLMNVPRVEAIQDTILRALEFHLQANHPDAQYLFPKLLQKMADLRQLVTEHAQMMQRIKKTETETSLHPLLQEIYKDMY
# Sequence of UniProt P16473 (P16473 whole entry, looked up): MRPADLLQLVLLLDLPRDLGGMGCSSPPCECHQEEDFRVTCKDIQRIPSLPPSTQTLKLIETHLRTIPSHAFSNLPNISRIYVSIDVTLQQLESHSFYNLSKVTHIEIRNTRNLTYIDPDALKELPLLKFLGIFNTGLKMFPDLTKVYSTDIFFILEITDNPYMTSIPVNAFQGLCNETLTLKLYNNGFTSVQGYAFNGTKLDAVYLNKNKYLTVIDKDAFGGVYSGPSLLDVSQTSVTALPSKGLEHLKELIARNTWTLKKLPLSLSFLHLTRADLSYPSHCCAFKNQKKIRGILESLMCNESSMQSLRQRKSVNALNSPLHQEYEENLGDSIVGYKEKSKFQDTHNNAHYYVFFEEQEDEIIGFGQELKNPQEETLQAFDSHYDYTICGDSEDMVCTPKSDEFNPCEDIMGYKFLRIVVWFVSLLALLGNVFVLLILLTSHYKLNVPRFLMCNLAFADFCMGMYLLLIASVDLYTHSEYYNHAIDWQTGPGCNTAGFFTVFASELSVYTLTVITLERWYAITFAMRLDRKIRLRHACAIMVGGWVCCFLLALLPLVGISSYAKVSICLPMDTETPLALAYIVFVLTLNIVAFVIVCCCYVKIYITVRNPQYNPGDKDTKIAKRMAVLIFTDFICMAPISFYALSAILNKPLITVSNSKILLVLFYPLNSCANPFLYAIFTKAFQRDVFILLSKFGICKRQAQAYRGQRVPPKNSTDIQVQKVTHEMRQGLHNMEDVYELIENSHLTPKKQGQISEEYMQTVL
structure (smiles),measurement,setting,value
O=C(O)C(F)(F)C(F)(F)C(F)(F)C(F)(F)C(F)(F)F,"activity change, negative = cytotoxicity",[1],inconclusive: 31.2%
same,activation,[2],inconclusive: 5.97%
same,Potency,[3],"inconclusive: 30.6 µM [rising, partial curve, poor fit]"
Oc1cccc(-c2ccccc2)c1,Potency,[4],active: 54.5 µM
same,Potency,[5],inactive
same,Potency,[3],"inconclusive: 68.6 µM [cytotoxic, single point]"
CC(=O)[O-].CC(=O)[O-].CC(=O)[O-].[Cr+3],Potency,[1],inconclusive: 76.6 µM [cytotoxic]
same,Potency,[6],"inconclusive: 68.3 µM [cytotoxic, single point]"
same,Potency,[3],"inconclusive: 76.6 µM [cytotoxic, single point]"
CC(N)=S,Potency,[7],inactive
Cc1ccc(C(=O)Cl)cc1,Potency,[8],inactive
CC(CCc1ccccc1)NC(C)C(O)c1ccc(O)cc1 (stereo not drawn),Potency,[9],"inconclusive: 0.0034 µM [cytotoxic, full curve, poor fit]"
same,Potency,[8],"inconclusive: 0.0944 µM [rising, full curve, poor fit]"
O=c1c2ccccc2c(=O)c2c1cc(Cl)c1[nH]c3c([nH]c12)c(Cl)cc1c(=O)c2ccccc2c(=O)c13,Potency,[1],inactive
same,Potency,[7],"inconclusive: 54.5 µM [activator, single point]"
same,Potency,[4],inactive
same,Potency,[5],"inconclusive: 12.2 µM [falling, partial curve, poor fit]"
O=[N+]([O-])c1ccccc1-c1ccccc1,Potency,[10],"inconclusive: 30.6 µM [falling, partial curve]"
NC(=O)CCl,Potency,[11],"inconclusive: 30.6 µM [cytotoxic, partial curve, poor fit]"
same,Potency,[3],"inconclusive: 68.6 µM [cytotoxic, partial curve]"
C[N+](C)(C)Cc1ccccc1,Potency,[9],inactive
same,Potency,[12],inactive
same,Potency,[13],inactive
CCCCSP(=O)(SCCCC)SCCCC,Potency,[1],inactive
same,Potency,[12],"inconclusive: 33.9 µM [rising, partial curve, poor fit]"
same,Potency,[4],active: 23.8 µM and active: 8.63 µM
COc1cc(CC#N)cc(OC)c1OC,Potency,[2],inconclusive: 0.0007 µM
same,Potency,[14],inactive
